Test results as given in the supplement of paper PMC4784398.
Many values rest on one well or one pass, so single values are uncertain.

What was measured:
Test in all cases: relative growth (AUC) vs no-drug reference well (fraction change); higher = more growth
[1] = test system: P9-CRG1
Experimental: (§1)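 S. cerevisiae BY4741 carrying a CRISPRi gRNA plasmid or empty vector, with or without ATc, grown in 100 µl CSM-Ura in 96-well plates at 30 °C. OD600 was read about every 15 min; baseline-corrected AUC gave relative growth = (AUC - AUC reference well)/AUC reference, the reference being the no-drug well. Single wells over a dilution series of the drug.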

[2] = test system: EV
Experimental: as §1

[3] = test system: EV+ATC
Experimental: as §1

[4] = test system: P9-CRG1+ATC
Experimental: as §1

[5] = test system: ERG11 + ATC
Experimental: as §1

[6] = test system: ERG11
Experimental: as §1

[7] = test system: EV + ATC
Experimental: as §1

Compound: C[C@@]12C(=O)OC(=O)[C@]1(C)[C@H]1CC[C@@H]2O1 [Cantharidin]
- relative growth ([1]; 0.5 µM): 0.0167
- relative growth ([1]; 0.624 µM): 0.0315
- relative growth ([1]; 0.8 µM): 0.0398
- relative growth ([1]; 0.96 µM): 0.0264
- relative growth ([1]; 1.2 µM): 0.0154
- relative growth ([1]; 1.52 µM): 0.0004
- relative growth ([1]; 1.92 µM): -0.0655
- relative growth ([1]; 2.4 µM): -0.0233
- relative growth ([1]; 3.2 µM): -0.0277
- relative growth ([1]; 4.32 µM): -0.0396
- relative growth ([1]; 5.76 µM): -0.0929
- relative growth ([1]; 7.76 µM): -0.206
- relative growth ([1]; 10.4 µM): -0.275
- relative growth ([1]; 13.92 µM): -0.422
- relative growth ([1]; 18.64 µM): -0.494
- relative growth ([1]; 24.96 µM): -0.583
- relative growth ([1]; 33.44 µM): -0.777
- relative growth ([1]; 44.88 µM): -0.825
- relative growth ([1]; 60.16 µM): -0.919
- relative growth ([1]; 76.72 µM): -0.972
- relative growth ([1]; 97.92 µM): -0.988
- relative growth ([1]; 125.04 µM): -0.998
- relative growth ([2]; 0.5 µM): 0.0198
- relative growth ([2]; 0.624 µM): 0.027
- relative growth ([2]; 0.8 µM): 0.0216
- relative growth ([2]; 0.96 µM): 0.0397
- relative growth ([2]; 1.2 µM): 0.0274
- relative growth ([2]; 1.52 µM): 0.0411
- relative growth ([2]; 1.92 µM): 0.0372
- relative growth ([2]; 2.4 µM): 0.0335
- relative growth ([2]; 3.2 µM): 0.0187
- relative growth ([2]; 4.32 µM): 0.0226
- relative growth ([2]; 5.76 µM): -0.0207
- relative growth ([2]; 7.76 µM): -0.0589
- relative growth ([2]; 10.4 µM): -0.0921
- relative growth ([2]; 13.92 µM): -0.156
- relative growth ([2]; 18.64 µM): -0.213
- relative growth ([2]; 24.96 µM): -0.324
- relative growth ([2]; 33.44 µM): -0.426
- relative growth ([2]; 44.88 µM): -0.584
- relative growth ([2]; 60.16 µM): -0.707
- relative growth ([2]; 76.72 µM): -0.808
- relative growth ([2]; 97.92 µM): -0.877
- relative growth ([2]; 125.04 µM): -0.956
- relative growth ([3]; 0.5 µM): 0.01
- relative growth ([3]; 0.624 µM): 0.0214
- relative growth ([3]; 0.8 µM): 0.0158
- relative growth ([3]; 0.96 µM): 0.0227
- relative growth ([3]; 1.2 µM): 0.0194
- relative growth ([3]; 1.52 µM): 0.0266
- relative growth ([3]; 1.92 µM): 0.0275
- relative growth ([3]; 2.4 µM): 0.0367
- relative growth ([3]; 3.2 µM): 0.015
- relative growth ([3]; 4.32 µM): 0.0239
- relative growth ([3]; 5.76 µM): 0.0029
- relative growth ([3]; 7.76 µM): -0.0458
- relative growth ([3]; 10.4 µM): -0.0742
- relative growth ([3]; 13.92 µM): -0.132
- relative growth ([3]; 18.64 µM): -0.187
- relative growth ([3]; 24.96 µM): -0.293
- relative growth ([3]; 33.44 µM): -0.382
- relative growth ([3]; 44.88 µM): -0.527
- relative growth ([3]; 60.16 µM): -0.696
- relative growth ([3]; 76.72 µM): -0.777
- relative growth ([3]; 97.92 µM): -0.849
- relative growth ([3]; 125.04 µM): -0.937
- relative growth ([4]; 0.5 µM): -0.0174
- relative growth ([4]; 0.624 µM): -0.0218
- relative growth ([4]; 0.8 µM): -0.0241
- relative growth ([4]; 0.96 µM): -0.0545
- relative growth ([4]; 1.2 µM): -0.103
- relative growth ([4]; 1.52 µM): -0.13
- relative growth ([4]; 1.92 µM): -0.276
- relative growth ([4]; 2.4 µM): -0.367
- relative growth ([4]; 3.2 µM): -0.396
- relative growth ([4]; 4.32 µM): -0.533
- relative growth ([4]; 5.76 µM): -0.632
- relative growth ([4]; 7.76 µM): -0.774
- relative growth ([4]; 10.4 µM): -0.836
- relative growth ([4]; 13.92 µM): -0.906
- relative growth ([4]; 18.64 µM): -0.928
- relative growth ([4]; 24.96 µM): -0.932
- relative growth ([4]; 33.44 µM): -0.931
- relative growth ([4]; 44.88 µM): -0.955
- relative growth ([4]; 60.16 µM): -0.977
- relative growth ([4]; 76.72 µM): -0.993
- relative growth ([4]; 97.92 µM): -0.997
- relative growth ([4]; 125.04 µM): -0.998

Compound: OC(Cn1cncn1)(Cn1cncn1)c1ccc(F)cc1F [Fluconazole]
- relative growth ([5]; 1 µM): 0.126
- relative growth ([5]; 1.48 µM): 0.03
- relative growth ([5]; 2.24 µM): 0.0786
- relative growth ([5]; 3.36 µM): 0.108
- relative growth ([5]; 5.04 µM): 0.0974
- relative growth ([5]; 5.88 µM): 0.0587
- relative growth ([5]; 6.88 µM): -0.1
- relative growth ([5]; 8 µM): -0.0209
- relative growth ([5]; 9.36 µM): -0.199
- relative growth ([5]; 10.92 µM): -0.194
- relative growth ([5]; 12.72 µM): -0.196
- relative growth ([5]; 14.8 µM): -0.398
- relative growth ([5]; 17.28 µM): -0.443
- relative growth ([5]; 20.16 µM): -0.555
- relative growth ([5]; 23.48 µM): -0.748
- relative growth ([5]; 27.4 µM): -0.818
- relative growth ([5]; 31.92 µM): -0.857
- relative growth ([5]; 37.24 µM): -0.889
- relative growth ([5]; 43.4 µM): -0.912
- relative growth ([5]; 50.6 µM): -0.919
- relative growth ([5]; 71.12 µM): -0.945
- relative growth ([5]; 100 µM): -0.938
- relative growth ([6]; 1 µM): 0.0828
- relative growth ([6]; 1.48 µM): 0.157
- relative growth ([6]; 2.24 µM): 0.0751
- relative growth ([6]; 3.36 µM): 0.0355
- relative growth ([6]; 5.04 µM): 0.062
- relative growth ([6]; 5.88 µM): 0.0726
- relative growth ([6]; 6.88 µM): -0.0293
- relative growth ([6]; 8 µM): 0.0181
- relative growth ([6]; 9.36 µM): 0.103
- relative growth ([6]; 10.92 µM): 0.0835
- relative growth ([6]; 12.72 µM): -0.0223
- relative growth ([6]; 14.8 µM): -0.0683
- relative growth ([6]; 17.28 µM): 0.075
- relative growth ([6]; 20.16 µM): -0.0179
- relative growth ([6]; 23.48 µM): -0.0145
- relative growth ([6]; 27.4 µM): -0.0543
- relative growth ([6]; 31.92 µM): -0.0166
- relative growth ([6]; 37.24 µM): -0.108
- relative growth ([6]; 43.4 µM): -0.236
- relative growth ([6]; 50.6 µM): -0.473
- relative growth ([6]; 71.12 µM): -0.873
- relative growth ([6]; 100 µM): -0.916
- relative growth ([7]; 1 µM): 0.101
- relative growth ([7]; 1.48 µM): 0.0851
- relative growth ([7]; 2.24 µM): 0.0853
- relative growth ([7]; 3.36 µM): 0.0792
- relative growth ([7]; 5.04 µM): 0.0683
- relative growth ([7]; 5.88 µM): 0.0759
- relative growth ([7]; 6.88 µM): 0.0656
- relative growth ([7]; 8 µM): 0.0613
- relative growth ([7]; 9.36 µM): 0.0218
- relative growth ([7]; 10.92 µM): 0.0189
- relative growth ([7]; 12.72 µM): -0.0212
- relative growth ([7]; 14.8 µM): 0.119
- relative growth ([7]; 17.28 µM): 0.107
- relative growth ([7]; 20.16 µM): 0.0543
- relative growth ([7]; 23.48 µM): 0.0372
- relative growth ([7]; 27.4 µM): -0.0464
- relative growth ([7]; 31.92 µM): -0.102
- relative growth ([7]; 37.24 µM): -0.218
- relative growth ([7]; 43.4 µM): -0.32
- relative growth ([7]; 50.6 µM): -0.489
- relative growth ([7]; 71.12 µM): -0.574
- relative growth ([7]; 100 µM): -0.721
- relative growth ([2]; 1 µM): 0.032
- relative growth ([2]; 1.48 µM): 0.016
- relative growth ([2]; 2.24 µM): 0.0324
- relative growth ([2]; 3.36 µM): 0.0593
- relative growth ([2]; 5.04 µM): 0.058
- relative growth ([2]; 5.88 µM): 0.0683
- relative growth ([2]; 6.88 µM): 0.0414
- relative growth ([2]; 8 µM): 0.0659
- relative growth ([2]; 9.36 µM): 0.0418
- relative growth ([2]; 10.92 µM): 0.034
- relative growth ([2]; 12.72 µM): -0.0217
- relative growth ([2]; 14.8 µM): 0.118
- relative growth ([2]; 17.28 µM): 0.101
- relative growth ([2]; 20.16 µM): 0.0602
- relative growth ([2]; 23.48 µM): 0.0298
- relative growth ([2]; 27.4 µM): -0.0296
- relative growth ([2]; 31.92 µM): -0.111
- relative growth ([2]; 37.24 µM): -0.238
- relative growth ([2]; 43.4 µM): -0.348
- relative growth ([2]; 50.6 µM): -0.522
- relative growth ([2]; 71.12 µM): -0.712
- relative growth ([2]; 100 µM): -0.743
